What all share (test): Primary Screen for Target Class Profiling of Small Molecule Inhibitors of Methyltransferases
In assay [1] the target is Glycine N-methyltransferase (Homo sapiens) (UniProt Q14749). The settings on record: purified enzyme, MTase-Glo SAH luminescence; measured here: GNMT inhibition; at 40 µM; stronger effect = lower value. The essentials: (§1)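 Each enzyme was assayed with SAM and its substrate. SAH formation detected by MTase-Glo luminescence; single-point 40 uM screen[…].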
For assay [2], the target named is Guanidinoacetate N-methyltransferase (Homo sapiens) (UniProt Q14353). The settings on record: purified enzyme, MTase-Glo SAH luminescence; measured here: GAMT inhibition; at 40 µM; stronger effect = lower value. The procedure, abridged:
as §1

For assay [3], the target named is Histamine N-methyltransferase (Homo sapiens) (UniProt P50135). The settings on record: purified enzyme, MTase-Glo SAH luminescence; measured here: HNMT inhibition; at 40 µM; stronger effect = lower value. The essentials:
as §1

Assay [4] has as its target Nicotinamide N-methyltransferase (Homo sapiens) (UniProt P40261). The settings on record: purified enzyme, MTase-Glo SAH luminescence; measured here: NNMT inhibition; at 40 µM; stronger effect = lower value. The essentials: as §1
In assay [5] the target is Phenylethanolamine N-methyltransferase (Homo sapiens) (UniProt P11086). The settings on record: purified enzyme, MTase-Glo SAH luminescence; measured here: PNMT inhibition; at 40 µM; stronger effect = lower value. The procedure, abridged: as §1

The results in this text go back to PubChem BioAssay AID1745853 (National Center for Advancing Translational Sciences (NCATS), 2022).

Some of the results follow. The main result of the screen is listed elsewhere. These columns were measured beside it and carry no call.
% is scaled to controls: 0 for no effect and ±100 for the full control effect.

In the case of `C=C1C(=O)O[C@@H]2[C@H]1CC(=O)[C@H](C)[C@@](O)(C(=O)/C=C/C)[C@H]2OC(=O)C(C)CC` (some centres not stated), the activity change, negative = inhibition is 0% in assay [1]; 7.15% in assay [2]; 0.459% in assay [3]; -3.6% in assay [4]; 4.55% in assay [5].

`Cc1c(C(=O)N(C)Cc2cc(-c3cccnc3)no2)oc2c(F)cccc12`: the activity change, negative = inhibition in assay [1] is -17.3%; in assay [2] it was -2.21%; in assay [3], -1.89%; in assay [4], -12.3%; in assay [5], -6.18%.

Turning to `CC1(C(=O)NC2CCCCCC2)Cn2c(c(-n3cccc3)c3cc(F)ccc32)C(=O)N1Cc1ccco1` (configuration not stated), the activity change, negative = inhibition in assay [1] was -14.4%; in assay [2], 3.19%; in assay [3] it was -9.55%; in assay [4], -17.2%; in assay [5], -5.49%.

Take `CCOC(=O)Cc1ccc(NC(=O)N2CCn3cccc3C2C)cc1` (configuration not stated): the activity change, negative = inhibition in assay [1] is -7.74%; in assay [2] it was 0.679%; in assay [3], -4.09%; in assay [4], -11.5%; in assay [5], -6.36%.

For the compound `COc1cccc(N2C(=O)NC(=NC3CCCCC3)C23CCCN([S+](=O)([O-])c2cccs2)C3)c1` (configuration not stated), the activity change, negative = inhibition in assay [1] is -10.1%; in assay [2], -9.63%; in assay [3], -6.54%; in assay [4] it was -27.6%; in assay [5], -22.7%.

In the case of `COc1ccc(-c2ncccc2CNS(=O)(=O)c2ccc(C#N)cc2)cc1`, the activity change, negative = inhibition turned out to be 4.4% in assay [1]; 1.28% in assay [2]; 3.5% in assay [3]; 1.43% in assay [4]; 3.08% in assay [5].

`C=CCn1c(=O)c2ccc(C(=O)NC(C)C)cc2n2c(=O)n(CC(=O)NC3CCCC3)nc12`: the activity change, negative = inhibition is -0.214% in assay [1]; 1.13% in assay [2]; 2.74% in assay [3]; -8.52% in assay [4]; 1.42% in assay [5].

Take `O=C1CCCCC(Cc2cccnc2)(C(=O)NCC2CC2)N1` (configuration not stated): the activity change, negative = inhibition is -0.435% in assay [1]; -1.31% in assay [2]; 1.3% in assay [3]; -0.853% in assay [4]; -2.87% in assay [5].

Turning to `O=C(c1ccsc1)N1CCC2(CC1)CN(c1ccncn1)CC2CO` (configuration not stated), the activity change, negative = inhibition was -0.568% in assay [1]; 2.87% in assay [2]; -1.22% in assay [3]; -0.398% in assay [4]; 2.11% in assay [5].

On to `CCCn1c(=O)c2ccccc2n2c(SCC(=O)Nc3ccc(CC)cc3)nnc12`, for which the activity change, negative = inhibition in assay [1] was -4.04%; in assay [2], 2.02%; in assay [3] it was 7.47%; in assay [4], 2.87%; in assay [5] it was 4%.

As to `CCC1C(=O)N(C)c2cnc(Nc3ccc(C(=O)NC4CCC(N5CCN(CC6CC6)CC5)CC4)cc3OC)nc2N1C(C)C` (configuration not stated), the activity change, negative = inhibition in assay [1] is -29.5%; in assay [3] it was -37.4%.

With `COCCOCc1nc(C2CCCN2C(=O)Cc2cccc(F)c2)no1` (configuration not stated), the activity change, negative = inhibition in assay [1] was -2.41%; in assay [2], -3.11%; in assay [3], 2.01%; in assay [4], -6.54%; in assay [5] it was -1.79%.

Turning to `CCc1ccc(NC(=O)Cn2c(=O)c3cc(Cl)ccc3n3nncc23)cc1`, the activity change, negative = inhibition in assay [1] is -4.38%; in assay [2], 0%; in assay [3] it was 7.04%; in assay [4], -5.61%; in assay [5], 0.612%.

For `COC(=O)C1=CO[C@@H](O[C@@H]2O[C@H](CO)[C@@H](O)[C@H](O)[C@H]2O)[C@H]2[C@@H]1[C@H](O)[C@H](O)[C@]2(C)O`, the activity change, negative = inhibition in assay [1] was 7.67%; in assay [2], 9.33%; in assay [3], 12.8%; in assay [4], -1.48%; in assay [5], 8.99%.

Take `COc1ccccc1CN1C(=O)c2cc3ccccc3n2CC1(C)C(=O)NCCCOC(C)C` (configuration not stated): the activity change, negative = inhibition in assay [1] stood at 4.88%; in assay [2], 0.365%; in assay [3], 8.61%; in assay [4], 7.62%; in assay [5] it was 1.48%.

Consider `C=C1CC23CC1(O)CCC2C1=CC2OC(=O)C(C)(C2O)C1C3C(=O)O` (configuration not stated), for which the activity change, negative = inhibition in assay [1] was -1.37%; in assay [2], -1.64%; in assay [3], 5.63%; in assay [4], -10.8%; in assay [5], -1.2%.

For `Cc1[nH]c2ccccc2c1CN1CCc2nc(N3CCN(C)CC3)[nH]c(=O)c2CC1`, the activity change, negative = inhibition in assay [1] was -4.15%; in assay [2], -0.285%; in assay [3], -20.5%; in assay [4], -4.2%; in assay [5], 2.98%.

Consider `Nc1cc(Cl)c(NC2=NCCN2)c(Cl)c1`, for which the activity change, negative = inhibition is 1.64% in assay [1]; 12.8% in assay [2]; 6.25% in assay [3]; -6.26% in assay [4]; 3.88% in assay [5].

Regarding `O[C@H]1CC[C@@H](Cc2cc(-c3ccc(F)cc3)on2)O[C@@H]1CNC1CCCCC1`, the activity change, negative = inhibition in assay [1] is -10.8%; in assay [2] it was -9.47%; in assay [3] it was -9.44%; in assay [4], -23.8%; in assay [5], -36.2%.

For `O=c1c2ccccc2n2c(=O)n(Cc3ccc(F)cc3)nc2n1CCc1ccccc1`, the activity change, negative = inhibition stood at 2.23% in assay [1]; 0% in assay [2]; 9.89% in assay [3]; 6.07% in assay [4]; 2.18% in assay [5].

For the compound `COc1ccc(NC(=O)Cn2c(=O)oc3cc(S(=O)(=O)N4CCCC4)ccc32)cc1Cl`, the activity change, negative = inhibition in assay [1] is 0.373%; in assay [2], 5.27%; in assay [3], 8.91%; in assay [4], 6.13%; in assay [5], -26.4%.

With `COc1ccc(/C=C/C(=O)O[C@@H]2[C@@H](O)[C@H](C)O[C@@H](O[C@H]3[C@@H]4C=CO[C@@H](O[C@H]5O[C@@H](CO)[C@H](O)[C@@H](O)[C@@H]5O)[C@@H]4[C@@]4(CO)O[C@@H]34)[C@@H]2OC(C)=O)cc1`, the activity change, negative = inhibition was -0.911% in assay [1]; 3.95% in assay [2]; 5.84% in assay [3]; -8.68% in assay [4]; 3.03% in assay [5].

As to `COc1ccc(CN2C(=O)c3cc4occc4n3CC2(C)C(=O)NC2CCCCCCC2)cc1` (configuration not stated), the activity change, negative = inhibition is -7.68% in assay [1]; 3.16% in assay [2]; -1.46% in assay [3]; -14.9% in assay [4]; -1.93% in assay [5].

`COc1ccc(-c2n[nH]n3c2nc(=O)c2ccc(C(=O)NCc4ccc(OC)c(OC)c4)cc23)cc1`: the activity change, negative = inhibition was -32.8% in assay [1]; 3.92% in assay [2]; 7.03% in assay [3]; 6.05% in assay [4]; -0.241% in assay [5].

On to `CC1(C(=O)NC2CCCCCCC2)Cn2c(ccc2-c2ccco2)C(=O)N1CCc1ccccc1` (configuration not stated), for which the activity change, negative = inhibition in assay [1] was -8.17%; in assay [2] it was 3.14%; in assay [3] it was -3.63%; in assay [4], -10.4%; in assay [5], -7.52%.

For `Cc1cccc(Cn2nc3n(C)c(=O)c4ccc(C(=O)NC5CCCC5)cc4n3c2=O)c1`, the activity change, negative = inhibition in assay [1] was -1.79%; in assay [2] it was 5.06%; in assay [3], 9.35%; in assay [4], -5.96%; in assay [5], -1.96%.

`CCOC(=O)C(C)Oc1cc2oc(=O)cc(-c3ccccc3)c2cc1Cl` (configuration not stated): the activity change, negative = inhibition in assay [1] is -8.62%; in assay [2] it was 0.774%; in assay [3], 1.38%; in assay [4] it was -2.01%; in assay [5], -5.57%.

Regarding `COc1ccc(-n2c(SCCCN3C(=O)c4cccc5cccc(c45)C3=O)nnc2-c2ccncc2)cc1`, the activity change, negative = inhibition was 1.91% in assay [1]; 3.92% in assay [2]; 8.78% in assay [3]; -31.1% in assay [4]; -2.65% in assay [5].

`CCOc1ccc(CCNC(=O)CCn2ccc3cc(S(=O)(=O)N4CCCC4)ccc32)cc1`: the activity change, negative = inhibition in assay [1] is -3.11%; in assay [2] it was 4.16%; in assay [3], -0.264%; in assay [4] it was -3.83%; in assay [5] it was -1.56%.

With `CCCn1c(=O)c2ccc(C(=O)NC3CCCCC3)cc2n2c(=O)n(Cc3ccc(C)cc3)nc12`, the activity change, negative = inhibition was determined as 3.14% in assay [1]; 0% in assay [2]; 5.8% in assay [3]; 5.29% in assay [4]; 4.85% in assay [5].
